The test has as its target C3 convertase (CVF:Bb) (Homo sapiens, UniProt P00751). The test can be described thus: biochemical.

As a reminder, the IC50 is the concentration at which inhibition is half-maximal. Read a high IC50 as a need for much substance.

Molecule `COc1cc(C)c2[nH]ccc2c1CN1CCN(CC(F)F)CC1c1ccc(C(N)=O)c(O)n1` (centres unmarked) yielded an IC50 of 10.2 µM.

`Cc1cc(OC(F)F)c(CN2CCN(CC(F)F)C[C@@H]2c2ccc(C(=O)O)c(N)c2)c2cc[nH]c12` yielded an IC50 of 106 µM.

With `COc1cc(C)c2[nH]ccc2c1CN1C[C@@H]2CC[C@@H](C)N2CC1c1ccc(C(=O)O)cc1` (some centres unmarked), the IC50 is 2.47 µM.

For `COc1cc(C)c2[nH]ccc2c1CN1CCN(C)CC[C@H]1c1ccc(C(=O)O)cc1`, the IC50 came to 0.0701 µM.

`COc1cc(C)c2[nH]ccc2c1CN1CCN(CCC(F)(F)F)C[C@H]1c1ccc(C(N)=O)c(N2CCCC2=O)c1` returned an IC50 of 17.6 µM.

In turn, `COc1cc(C)c2[nH]ccc2c1CN1C[C@@H]2C[C@@H](F)CN2CC1c1ccc(C(=O)O)cc1` (some centres unmarked) gave an IC50 of 11.7 µM.

`COc1cc(C)c2[nH]ccc2c1CN1CCN(CC(F)F)C[C@@H]1c1ccc(C(=O)O)c(NC2CCC2)c1` showed an IC50 of 57.1 µM.

Molecule `COc1cc(C)c2[nH]ccc2c1CN1CC(C)N(C)C[C@@H]1c1ccc(C(=O)O)cc1` (some centres unmarked) showed an IC50 of 18.9 µM.

As to `COc1cc(C)c2[nH]ccc2c1CN1CCN(CC(F)(F)F)CCC1c1ccc(-c2nn[nH]n2)cc1` (centres unmarked), the IC50 stood at 0.77 µM.

For `COc1cc(C)c2[nH]ccc2c1CN1C[C@H]2CCCN2C[C@@H]1c1ccc(C(=O)O)cc1`, half-maximal inhibition (IC50) required 15.6 µM.

With `CNc1cc([C@H]2CN(CCC(F)(F)F)CCN2Cc2c(OC)cc(C)c3[nH]ccc23)ccc1C(=O)O`, the 50% inhibitory concentration (IC50) was found to be 38.6 µM.

On to `COc1cc(C)c2[nH]ccc2c1CN1CCN(CC(F)F)C[C@H]1c1ccc(C(=O)O)c(NC2CC(F)(F)C2)c1`, for which it took 0.808 µM to reach half-maximal inhibition (IC50).

`COc1cc(C)c2[nH]ccc2c1CN1CCN(CC(F)F)CC1c1ccc(C(=O)O)c2[nH]ccc12` (centres unmarked) had an IC50 of 0.34 µM.

In the case of `COc1cc(C)c2[nH]ccc2c1CN1C[C@@H]2CC[C@H](C)N2C[C@@H]1c1ccc(C(=O)O)cc1`, the IC50 is 12.8 µM.

The molecule `COc1cc(C)c2[nH]ccc2c1CN1CCN(C)CC[C@@H]1c1ccc(C(=O)O)c(O)c1` had a concentration for half-maximal inhibition (IC50) of 1.38 µM.

As for `COc1cc([C@@H]2CN(CC(F)F)CCN2Cc2c(OC)cc(C)c3[nH]ccc23)ccc1C(=O)O`, 1.13 µM corresponded to half-maximal inhibition (IC50).

Take `COc1cc(C)c2[nH]ccc2c1CN1CCN(CC(F)F)C[C@H]1c1ccc(C(=O)O)c(NCC2CC2)c1`: the IC50 was found to be 0.767 µM.

`COc1cc(C)c2[nH]ccc2c1CN1CCN(CC(F)F)C[C@@H]1c1ccc(C(=O)O)c(CO)c1` had an IC50 of 4.19 µM.

`COc1cc(C)c2[nH]ccc2c1CN1CCN(CC(F)F)C[C@@H]1c1ccc(C(=O)O)c(NS(C)(=O)=O)c1` had an IC50 of 16.3 µM.

Consider `COc1cc(C)c2[nH]ccc2c1CN1CCN(CC(F)F)C[C@H]1c1ccc(C(=O)O)c2c1OCCN2`, for which the IC50 is 0.148 µM.

The molecule `COc1nc(C)c2[nH]ccc2c1CN1CCN(CC(F)F)CC1c1ccc(C(=O)O)c(C)c1` (centres unmarked) showed an IC50 of 22.9 µM.

The molecule `COc1cc(C)c2[nH]ccc2c1CN1CCN(CCC(F)(F)F)C[C@H]1c1ccc(C(N)=O)c(N)c1` returned an IC50 of 3.86 µM.

`COc1cc(C)c2[nH]ccc2c1CN1CCN(CC(F)(F)F)C[C@@H]1c1ccc(C(=O)O)c(N)c1` came in with an IC50 of 9.63 µM.

With `COc1cc(C)c2[nH]ccc2c1CN1CCN(CC(F)(F)F)CC1c1ccc(C(=O)O)c(C)c1` (centres unmarked), it took 0.888 µM to reach half-maximal inhibition (IC50).

`COc1cc(C)c2[nH]ccc2c1CN1C[C@H]2CCCN2C[C@H]1c1ccc(C(=O)O)cc1` came in with an IC50 of 3.82 µM.

For the molecule `COc1cc([C@@H]2CN(CCC(F)(F)F)CCN2Cc2c(OC)cc(C)c3[nH]ccc23)ccc1C(=O)O`, the IC50 was 0.267 µM.

In the case of `COc1cc(C)c2[nH]ccc2c1CN1CCN(CCC(F)(F)F)C[C@H]1c1ccc(C(=O)O)c(N(C)C)c1`, the IC50 is 0.637 µM.

`COc1cc(C)c2[nH]ccc2c1CN1C[C@H]2C[C@H](F)CN2C[C@@H]1c1ccc(C(=O)O)cc1`: the IC50 came out at 20.7 µM.

`COc1cc(C)c2[nH]ccc2c1CN1CCN(CC(F)F)C[C@H]1c1ccc(C(=O)O)c(O)n1` showed an IC50 of 1.84 µM.

For the molecule `COc1cc(C)c2[nH]ccc2c1CN1CCN(CC(F)F)C[C@@H]1c1ccc(C(=O)O)c(OC2COC2)c1`, the IC50 came out at 7.12 µM.

In turn, `COc1cc(C)c2[nH]ccc2c1CN1CCCN(CC(F)(F)F)CC1c1ccc(-c2nn[nH]n2)cc1` (centres unmarked) showed an IC50 of 0.176 µM.

For the molecule `COc1cc(C)c2[nH]ccc2c1CN1C[C@@H]2CCCCN2C[C@H]1c1ccc(C(=O)O)cc1`, the half-inhibitory concentration (IC50) worked out at 2.61 µM.

The values are drawn from patent US20260216175A1, “COMPLEMENT INHIBITION” (Apellis Pharmaceuticals, Inc., priority 2023, published 2026).
